Results from the supplement of paper PMC3334620.
Over roughly 33,000 sequences, “E-score (-0.5 to 0.5)” has its median near -0.016; the highest 2% begin near 0.32. The list shows a part of the results.

These sequences were tested against T1, Stp1 (UniProt B3LFK1) (assay: PBM E-score (8-mer binding enrichment) (E-score (-0.5 to 0.5)); higher = stronger / more preferred TF binding; most listed sequences are background and not binding sites). Conditions: protein concentration: 200 nM; construct: GST-full length.
T1 sequence: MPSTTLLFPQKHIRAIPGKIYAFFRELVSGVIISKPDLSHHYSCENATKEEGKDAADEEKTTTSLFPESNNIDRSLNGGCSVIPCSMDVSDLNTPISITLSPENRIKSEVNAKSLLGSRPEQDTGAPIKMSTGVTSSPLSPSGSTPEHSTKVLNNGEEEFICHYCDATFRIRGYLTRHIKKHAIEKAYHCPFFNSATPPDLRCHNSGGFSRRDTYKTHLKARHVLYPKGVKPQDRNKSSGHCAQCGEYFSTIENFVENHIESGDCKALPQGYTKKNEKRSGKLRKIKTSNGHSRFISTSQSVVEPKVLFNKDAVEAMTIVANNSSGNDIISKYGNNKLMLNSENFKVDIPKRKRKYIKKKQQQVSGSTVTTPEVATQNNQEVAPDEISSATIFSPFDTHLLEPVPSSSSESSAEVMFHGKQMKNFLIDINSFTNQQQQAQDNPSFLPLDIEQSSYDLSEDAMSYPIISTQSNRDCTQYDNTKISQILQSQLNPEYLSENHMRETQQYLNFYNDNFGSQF
Summary of the method: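 Bound GST-tagged yeast transcription factors, applied at about 100-200 nM to double-stranded universal all-10-mer Agilent arrays, were detected with fluorescent anti-GST. Scans were normalised with masliner. A modified Wilcoxon-Mann-Whitney statistic, the E-score, was assigned to each ungapped eight-base word pooled with its reverse complement by the Universal PBM Analysis Suite.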
AGCCAACG was tested, and the “PBM E-score” value was 0.109. In the case of GCTCCGCA, the “PBM E-score” value is reported as 0.209. For ATGCATTC, the “PBM E-score” value was 0.0215. For CGTGCACA, the “PBM E-score” value was -0.017. With AGTTCGAC the “PBM E-score” value was 0.0693. With AATGACCA the “PBM E-score” value was -0.167. TCGGAAAA was tested, and the “PBM E-score” value was 0.0755. In the case of GTGCTAAA, the “PBM E-score” value is reported as 0.119. With ACCACTAC the “PBM E-score” value was -0.0664. In the case of CATAGCCG, the “PBM E-score” value is reported as 0.171. For CCCTCGAA, the “PBM E-score” value was -0.293. GCAACTTA was tested, and the “PBM E-score” value was 0.0426. In the case of AACAGCAT, the “PBM E-score” value is reported as 0.0669. For CCATACCG, the “PBM E-score” value was 0.0658. With ATAGGGCA the “PBM E-score” value was 0.222. In the case of CACTTTCA, the “PBM E-score” value is reported as -0.0764. AGTTAACA was tested, and the “PBM E-score” value was 0.0843. With GTAAACAC the “PBM E-score” value was 0.0667. In the case of TATGAATA, the “PBM E-score” value is reported as 0.136. For AGTACCTA, the “PBM E-score” value was -0.0253. For GCATGACC, the “PBM E-score” value was -0.233. GACCGTCA was tested, and the “PBM E-score” value was -0.187. AAGTGTCC was tested, and the “PBM E-score” value was 0.0872. For AGAATACT, the “PBM E-score” value was 0.142. With AACTAGTA the “PBM E-score” value was 0.00173. With AGCCTTGG the “PBM E-score” value was -0.138. With CAACCAGA the “PBM E-score” value was 0.0587. In the case of CCCAGAAG, the “PBM E-score” value is reported as -0.081. For CAAGTAAC, the “PBM E-score” value was 0.0497. In the case of CGAGGCTA, the “PBM E-score” value is reported as 0.0726. With GCCATCAC the “PBM E-score” value was -0.108. For CCCATTGA, the “PBM E-score” value was 0.0975. In the case of GCACTCTA, the “PBM E-score” value is reported as -0.0288. For ATGTATGA, the “PBM E-score” value was -0.0416. With CAACTAAA the “PBM E-score” value was 0.135. With AACGAGTT the “PBM E-score” value was -0.18. ATCTTTGC was tested, and the “PBM E-score” value was 0.262. ACGTTTAA was tested, and the “PBM E-score” value was 0.12. With CTCGTTAA the “PBM E-score” value was -0.0134. With AATTCGGA the “PBM E-score” value was 0.0454. For GGCGTCCA, the “PBM E-score” value was 0.139. For CAACGTTG, the “PBM E-score” value was 0.195. In the case of GCAAACAA, the “PBM E-score” value is reported as 0.117. With AGTCAAAC the “PBM E-score” value was -0.0852. With GGCAACTA the “PBM E-score” value was 0.222. In the case of ACGGGTAT, the “PBM E-score” value is reported as 0.206. In the case of CAACATCG, the “PBM E-score” value is reported as 0.0749. For CGGATCAG, the “PBM E-score” value was -0.00649. For GATAAACA, the “PBM E-score” value was 0.0115. With GCTTTACA the “PBM E-score” value was 0.112. With ACATAGGG the “PBM E-score” value was -0.00181. For GAGCACTC, the “PBM E-score” value was -0.112. GGACACCA was tested, and the “PBM E-score” value was 0.0259. With CTTGATAC the “PBM E-score” value was 0.113. With AAGCGCAC the “PBM E-score” value was -0.175. GCCATAAC was tested, and the “PBM E-score” value was -0.207. CAGGCGCC was tested, and the “PBM E-score” value was 0.286. For TACTCATA, the “PBM E-score” value was 0.0338. With CTTCCACA the “PBM E-score” value was 0.0466. In the case of ATCGCCAC, the “PBM E-score” value is reported as 0.286. AGGATTAC was tested, and the “PBM E-score” value was -0.0414. With CCTAAAAC the “PBM E-score” value was -0.0975. With GAAATCCC the “PBM E-score” value was -0.202. In the case of ACGAGCTA, the “PBM E-score” value is reported as -0.122. In the case of GGTCTGGA, the “PBM E-score” value is reported as -0.28. For ATGTTAAG, the “PBM E-score” value was 0.0614. AAACTTTG was tested, and the “PBM E-score” value was 0.24. With GGCGTCAC the “PBM E-score” value was 0.179. In the case of GGGCCCTA, the “PBM E-score” value is reported as -0.215. In the case of AACGAAAC, the “PBM E-score” value is reported as 0.136. For CTGAGCCA, the “PBM E-score” value was -0.0648. For TGAAAGCA, the “PBM E-score” value was 0.108. ACGATCAG was tested, and the “PBM E-score” value was -0.035. In the case of GCTCCAAC, the “PBM E-score” value is reported as 0.191. GTAACCTA was tested, and the “PBM E-score” value was 0.137. For AACATCTC, the “PBM E-score” value was -0.101. In the case of CATCGCGG, the “PBM E-score” value is reported as 0.0513. In the case of ATGCCATG, the “PBM E-score” value is reported as 0.276. With TGCTGAAA the “PBM E-score” value was -0.00267. For AGCGCATC, the “PBM E-score” value was -0.26. With AAATCACT the “PBM E-score” value was 0.00777. TACAGGTA was tested, and the “PBM E-score” value was 0.015. For CTGTCTCC, the “PBM E-score” value was -0.179. For ACGCTCCT, the “PBM E-score” value was -0.0745. For AAACCGGC, the “PBM E-score” value was -0.0811. In the case of GCTTGCAC, the “PBM E-score” value is reported as -0.0781. CCTATCAC was tested, and the “PBM E-score” value was -0.0327. CGAGACGA was tested, and the “PBM E-score” value was -0.154. In the case of GGCGCCCC, the “PBM E-score” value is reported as 0.284. ATTAGGCA was tested, and the “PBM E-score” value was 0.127. With AGGAATAT the “PBM E-score” value was 0.137. In the case of GACCTATA, the “PBM E-score” value is reported as 0.139. In the case of ACTGAACT, the “PBM E-score” value is reported as 0.0818. With AGGCTGCA the “PBM E-score” value was 0.00538.
